The results in this text go back to ChEMBL document CHEMBL4888484, “Replenishing the malaria drug discovery pipeline: Screening and hit evaluation of the MMV Hit Generation Library 1 (HGL1) against asexual blood stage Plasmodium falciparum ,using a nano luciferase reporter read-out” (2022).

Out of some 150,000 compounds screened, about 540 (0.36%) showed an effect of 50% or more. This is one part of the list.

The experiment has as its system Plasmodium falciparum. Put plainly: Primary screen in NF54 nanoGlo assay, in single point, at 2uM, 72h; a lower Z score goes with more inhibition. The experiment is classed as functional, Erythrocyte. The following applies: timepoint 72 hour.
Turning to `CC(C)N(CC(=O)N1CCNC1=O)Cc1cc2c(s1)CCC2`, the “% Inhibition” value was 5% and the Z score is reported as -0.71.
On to `Cc1ccc(NC(=O)N2Cc3cncnc3C2)cc1`, for which the “% Inhibition” value is -6% and the Z score is on record as 1.08.
As to `COC[C@@H]1CN(c2cnccn2)C[C@H]1C(=O)NCc1ccco1`, the “% Inhibition” value is -13% and the Z score was 1.98.
For the compound `Cc1ccc(CN(C(=O)C(F)(F)F)c2cnccn2)cc1`, the “% Inhibition” value was -4% and the Z score is on record as 0.42.
For `C[C@H](NC(=N)N)c1cccc(Br)c1`, the “% Inhibition” value was -8% and the Z score is 1.22.
As to `COc1ccccc1N1CCN(C2CCN(C[C@H]3CCCCO3)CC2)CC1`, the “% Inhibition” value came to 4% and the Z score is listed as -0.5.
`c1cc(C2CCCC2)nc(NCCc2nccs2)n1`: the “% Inhibition” value is -3% and the Z score is recorded as 0.52.
On the same counts, the results for `COc1ccc(C2=NC3=S(N2c2ccccc2)N(C(C)=O)C(C(Cl)(Cl)Cl)N3c2ccccc2)cc1` (stereo not drawn) are 37% and -1.24.
`CNC(=O)[C@H](C)NC(=O)c1ccc(N2CCC2)nc1`: the “% Inhibition” value is given as -7% and the Z score is listed as 1.19.
As for `O=C(NCc1noc(-c2ccccc2)n1)Nc1cccnc1`, the “% Inhibition” value is listed as -9% and the Z score is recorded as 1.2.
Consider `COc1ccc2cc1OCC(=O)N[C@@H](C)C(=O)N(C)CCCCN(c1ncnc3sccc13)CCCNC(=O)CC2`, for which the “% Inhibition” value is reported as 9% and the Z score was -1.22.
In the case of `O=C1C[C@H](c2cc(F)cc(F)c2)c2cnn(-c3cccc(Cl)c3)c2N1`, the “% Inhibition” value was 11% and the Z score is -1.43.
As for `COc1ccc(NC(=O)Nc2c(-c3cccnc3)[nH]c3ccc(F)cc23)cc1`, the “% Inhibition” value came to 3% and the Z score is -0.49.
For the compound `Cc1ccc(C)c(OCC(=O)N2CCC(CCN3CCCC3=O)CC2)c1C`, the “% Inhibition” value turned out to be 4% and the Z score was -0.55.
In the case of `COc1cc(N[C@H]2CCOC[C@@H]2OCCN(C)C)nc(OC)n1`, the “% Inhibition” value is reported as -9% and the Z score stood at 1.25.
As for `c1ccc(-c2cnn([C@@H]3CCCCO3)n2)nc1`, the “% Inhibition” value is -3% and the Z score stood at 0.36.
As to `COc1ccc([C@@H](O)Cn2cnc(C(=O)Nc3ccc(F)cc3)n2)cc1`, the “% Inhibition” value was -6% and the Z score is 0.71.
As for `Cc1noc2ncn(CC(=O)Nc3nccs3)c(=O)c12`, the “% Inhibition” value is recorded as 4% and the Z score is reported as -0.7.
Turning to `Cc1c(Cl)cccc1S(=O)(=O)N1CC[C@H](c2ccc3c(c2)CCO3)C1`, the “% Inhibition” value was -17% and the Z score amounted to 2.01.
Consider `Cn1nncc1CNc1c(F)cccc1F`, for which the “% Inhibition” value was -4% and the Z score was determined as 0.78.
Regarding `Cn1cc(NC(=O)N[C@@H]2CCC[C@@H]2n2ccnc2)c(C2CC2)n1`, the “% Inhibition” value is recorded as 4% and the Z score is reported as -0.54.
As for `CC(C)c1nc(N2CCO[C@H](c3ccc(F)cc3)C2)no1`, the “% Inhibition” value is on record as -9% and the Z score worked out at 1.18.
Taken in the same sequence, the figures for `O=C(Nc1ccc2nc(N3CCCC3)sc2c1)c1ccc2c(c1)OCCO2` were -5% and 0.52.
In the case of `COc1cc2c(cc1-c1cn([C@H]3CS(=O)(=O)C[C@@H]3O)nn1)CCC2`, the “% Inhibition” value came to 0% and the Z score came out at 0.05.
In the case of `O=C(C[C@H]1CCCN1c1nccn2cnnc12)c1ccc(F)cc1`, the “% Inhibition” value is reported as -19% and the Z score was 2.51.
Take `Cc1ccc(-c2noc(Cn3cnc4ccccc43)n2)cc1`: the “% Inhibition” value was -12% and the Z score was 1.86.
With `COc1ccc2ncc(C(=O)N(CCS(C)(=O)=O)C3CC3)n2n1`, the “% Inhibition” value is given as -5% and the Z score came out at 0.84.
For the compound `CC(C)N1CCCN(Cc2nccs2)CC1`, the “% Inhibition” value is recorded as -6% and the Z score amounted to 0.94.
On to `Cc1nc2c([nH]1)CN(Cc1cc3c(cc1Cl)OCO3)CC2`, for which the “% Inhibition” value was -22% and the Z score came to 2.18.
On to `COc1cccc(-c2ccc(N3CCN(C(=O)CN(CCN4CCOCC4)C(=O)C(C)C)CC3)nn2)c1`, for which the “% Inhibition” value is -9% and the Z score is on record as 1.34.
For `CCN1C[C@H](CN(C)S(=O)(=O)c2c(Cl)cccc2Cl)Oc2ccccc21`, the “% Inhibition” value was found to be 1% and the Z score was -0.27.
Regarding `O[C@@]1(CNc2cc(-c3ccccc3F)nc3ccnn23)CCCNC1`, the “% Inhibition” value was determined as 7% and the Z score is -1.32.
On the same counts, the results for `Cc1cccc(Cn2c(=O)n(CCNC(=O)CC(C)(C)C)c3ncccc32)c1` are -15% and 1.73.
Taken in the same sequence, the figures for `COc1ccc(NC(=O)Cn2nc3c4sc(N5CCCCCC5)nc4ncn3c2=O)cc1` were -10% and 1.15.
On the same counts, the results for `Cn1nccc1C(=O)Nc1cc(S(=O)(=O)N2CCCC2)ccn1` are 2% and -0.39.
Consider `Cc1cc(CNC(=O)c2coc(-c3ccccc3)n2)ccc1S(N)(=O)=O`, for which the “% Inhibition” value came out at 4% and the Z score is recorded as -0.53.
On the same counts, the results for `c1ccc2c(c1)CN(c1ccnc(C3CC3)n1)CCO2` are -15% and 1.73.
Take `CCCN1C[C@@H](NCc2nccn2CCOC)CC1=O`: the “% Inhibition” value is -17% and the Z score is reported as 1.62.
Turning to `CC1CCN(C(=O)NCC(C)(C)S(C)(=O)=O)CC(C)C1` (stereo not drawn), the “% Inhibition” value is reported as 12% and the Z score is recorded as -1.31.
On the same counts, the results for `CCc1c(-c2nc([C@H]3CCOC3)no2)[nH]c2ccccc12` are 13% and -2.17.
For the compound `Cc1ccc(C(=O)OC[C@H]2CN(C)CCO2)c(F)c1`, the “% Inhibition” value is -5% and the Z score is 0.86.
Regarding `COc1cccc2c1CCC[C@H](NC(=O)NCc1cccnc1C)C2`, the “% Inhibition” value is -4% and the Z score is 0.68.
With `Cc1ccccc1NC(=O)Cn1nc(C2CC2)cc1C(=O)N1CCCC1`, the “% Inhibition” value is listed as -6% and the Z score came to 0.93.
Turning to `Cc1noc2ncnc(N3CCC[C@@](CO)(CCOc4ccccc4)C3)c12`, the “% Inhibition” value is given as -6% and the Z score stood at 1.07.
Taken in the same sequence, the figures for `C=C(C)CN(CC)C(=O)Nc1cc(C)ccn1` were 2% and -0.28.
Take `C#CCCC1(CCC(=O)N2CC[C@H](NC(C)=O)C2)N=N1`: the “% Inhibition” value is -15% and the Z score was determined as 1.81.
Regarding `Cn1nc(-c2cccnc2)c2[nH]c(-c3ccc4c(c3)CC(C)(C)O4)nc21`, the “% Inhibition” value is listed as -6% and the Z score amounted to 0.65.
With `Cc1ccc(C)c(NC(=O)Cn2ccn3nc4c(c3c2=O)CCCC4)c1`, the “% Inhibition” value is on record as -14% and the Z score was 1.33.
On to `O=C(c1ccn(CC(F)(F)F)n1)N1CC=C[C@@H]1CO`, for which the “% Inhibition” value was -4% and the Z score is 0.46.
In the case of `Cc1ccc(C(N)=O)c(N2Cc3cnc(CC(C)C)nc3C2)n1`, the “% Inhibition” value is 22% and the Z score is -2.8.
Turning to `Cc1ccc(CS(=O)(=O)NCc2cc[nH]n2)cc1F`, the “% Inhibition” value is listed as -14% and the Z score was 2.72.
Turning to `CCN1C(=O)CN(CN2CCN(c3ccccc3F)CC2)C1=O`, the “% Inhibition” value is -11% and the Z score is reported as 1.14.
With `CC(=O)c1c[nH]c(C(=O)Nc2ccc(N3CC(C)OC(C)C3)cc2)c1` (stereo not drawn), the “% Inhibition” value is reported as -1% and the Z score was determined as 0.23.
Taken in the same sequence, the figures for `Cc1cccc(O[C@@H](C)C(=O)Nc2nc(-c3ccc4c(c3)OCCO4)cs2)c1` were 1% and -0.2.
